Measurements from PubChem BioAssay (NCI).
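Interpolation was linear, between the two tested concentrations surrounding the appropriate level; five concentrations were tested over 48 hours in 96-well plates. GI50 is the concentration that inhibits growth by half. The concentration for full growth arrest is given as TGI.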

test system: NCI-H322M lung; assay: growth of human tumour cells (NCI), 48 h

Row | SMILES | TGI [µM] | GI50 [µM]
1 | COC(=O)C1CCC(Nc2ccc(C)cc2C)=N1 (stereo not given) | > 100 | –
2 | CC(C)C[C@H](NC(=O)[C@H](Cc1ccccc1)NC(=O)CCc1ccccc1)B(O)O | 0.0212 | –
3 | CC(C)(C)OC(=O)CC(NC(=O)OC(C)(C)C)C(=O)N[C@@H]1CCCC[C@H]1C(=O)OCc1ccccc1 (stereo not given in full) | > 100 | –
4 | CC1=NNC(=O)C1C1CC(c2c[nH]c3ccccc23)=NNC1=S (stereo not given) | > 100 | –
5 | Cc1ncc([N+](=O)[O-])n1CCN(C)C(=O)CCCn1ccnc1[N+](=O)[O-] | > 100 | –
6 | CN(CCCCCl)P(=O)(OCc1ccc([N+](=O)[O-])o1)OCC1OC(n2ccc(N)nc2=O)C(F)(F)C1O (stereo not given) | > 27.2 | 3.49
7 | CCN1C=C/C(=C\C=C/c2cc[n+](CC)c3ccccc23)c2ccccc21 | 20 | –
8 | CCN(CC)CCCn1cnc2ncccc2c1=O | > 100 | –
9 | O=C1CS(=O)(=O)C(c2cccc(Oc3ccccc3)c2)N1c1cccc(Cl)c1 (stereo not given) | > 100 | –
10 | COC(=O)C1=C(C(=O)OC)C(Cc2ccccc2)(OO)OC1=O (stereo not given) | 50.7 | –
11 | COc1cc(OC)cc(OCc2ccc3nc(-c4ccccc4)c(Cl)nc3c2)c1 | > 100 | –
12 | C/C(=N\NC(N)=S)c1cc(C)c(C)cc1C | > 100 | –
13 | C=CCc1cc(-c2cc(CC=C)c(O)c(CNC)c2)cc(CNC)c1O | 30.8 | –
14 | CCOC(O)(NC(=O)C(C(F)(F)F)C(F)(F)F)C(F)(F)F (stereo not given) | > 100 | –
15 | Cn1cc(C2=C(c3cn(CCO)c4ccccc34)C(=O)NC2=O)c2ccccc21 | > 19.3 | 5.73
16 | CC(C)Nc1ccc(Nc2ccccc2)cc1 | > 100 | 38.3
17 | CCOc1ccc(Nc2nc3c(s2)C(=O)c2ccccc2C3=O)cc1 | 34.1 | –
18 | COc1ccc2c(c1)CCN=C2Cc1cc(OC)c(OC)cc1CCCl | > 100 | –
19 | CC(C)CC[C@H](O)[C@@H](C)[C@H]1[C@@H](OC2OC(C)C(O)C(O)C2O)C[C@H]2[C@@H]3CC=C4C[C@@H](O)CC[C@]4(C)[C@H]3[C@@H](O)C[C@]12C (stereo not given in full) | > 100 | –
20 | Cc1ccc(NC(=O)Cc2ccc(/C=C/C(=O)c3ncc[nH]3)cc2)cc1 | > 25 | 6.06
21 | O=Cc1c2ccccc2n2ccc3c4ccccc4[nH]c3c12 | > 10 | –
22 | CCOc1ccc(NC(=O)C2=C(C)NC(C)=C(C(=O)Nc3ccc(OCC)cc3)C2c2ccc(O)c(OC)c2)cc1 | > 100 | –
23 | CCOC(=O)/C(=N\OC)C(O)C(F)(F)F (stereo not given) | > 100 | –
24 | CCOC(=O)C1C(c2ccc(OC)cc2)c2c([nH]n(-c3ccccc3)c2=O)CC1(O)OCC (stereo not given) | > 100 | –
25 | O=c1c2c3c(sc2n2c(-c4cc(-c5ccccc5)no4)nnc2n1Cc1ccccc1)CCCC3 | > 77.9 | 17
26 | Cn1c(N)c(C(N)=O)[nH]c1=S | > 100 | –

Row | SMILES | TGI [µM] | GI50 [µM]
27 | Fc1ccc(-c2nn3c(-c4ccc(F)c(Cl)c4)nnc3s2)cc1 | > 50 | 44.4
28 | O=C(CC(=O)Nc1cccc(Cl)c1)NNCC(=O)Nc1nnc(-c2ccccc2)s1 | > 100 | –
29 | O=S(=O)(N/N=C1\CC2CCC1C2)c1ccccc1 (stereo not given) | > 100 | –
30 | COc1cc(/C=N/n2c(Cc3ccc(Cl)cc3)n[nH]c2=O)cc(OC)c1OC | > 100 | –
31 | C=[N+](CNC(=O)CNC(=O)C(Cc1ccc([N+](=O)[O-])cc1)NC(=O)OC(C)(C)C)C(=O)CNC(=O)C(Cc1ccc([N+](=O)[O-])cc1)NC(=O)OC(C)(C)C (stereo not given) | > 100 | –
32 | C#CCN(Cc1nc2cc(C(F)(F)F)ccc2nc1-c1ccccc1)c1ccc(OC(F)(F)F)cc1 | > 100 | 73.4
33 | CC(C)[C@H]1CC[C@H]2[C@@H](CC[C@H]3[C@](C)(CN)CCC[C@]23C)C1 | 3.35 | 1.72
34 | N#Cc1cccc(OCc2nc(N)nc(N)c2-c2ccc(Cl)c(Cl)c2)c1 | > 100 | 2.84
35 | S=C1Cc2c(-c3ccc(Cl)cc3)cc(-c3ccccc3)nc2-c2ccccc2N1 | 29.4 | –
36 | CCCCCCc1cc2cc(-c3nc4ccccc4[nH]3)c(=Nc3ccccc3C)oc2cc1O | > 92.1 | 10.6
37 | Cc1oc2c(C)c3oc(=O)cc(C)c3cc2c1CNC(=O)[C@@H]1OCCOCCOCCOCCOCCOC1C(=O)O (stereo not given in full) | > 100 | –
38 | CCOC(=O)N1C2C=C(C)C(ON2C(=O)c2ccccc2)C2C(C)C(=O)N21 (stereo not given) | > 100 | –
39 | CN(C)c1nc(N(C)C)nc(N(C)CN(C)c2ccc(Cl)cc2)n1 | > 100 | –
40 | Nc1cc(C(=O)O)[nH]c(=O)n1 | > 100 | –
41 | O=c1c2ccccc2c(Br)c(Br)c2ccccc12 | 91.2 | 30.9
42 | COc1ccc(C2CC(c3cccc(Nc4ccncc4)c3)=NN2c2ccc(Cl)cc2)cc1 (stereo not given) | 3.21 | 1.59
43 | CC(=O)Nc1ccc(/C=C/C(=O)c2ccccc2)cc1 | 69.5 | 26.8
44 | NC(=O)C#CC#CC#CCO | 23 | –
45 | Cc1ccc(Cc2n[nH]c(=O)n2/N=C\CC/C=N\n2c(Cc3ccc(C)cc3)n[nH]c2=O)cc1 | > 100 | –
46 | COc1ccc(/C=C2\C(=O)N(C)C(=O)c3cc(OC)c(OC)cc32)cc1OC | > 100 | –
47 | COc1ccc2c(c1)C(=O)N1CCOC1C2C(=O)O (stereo not given) | > 100 | –
48 | CC1OC(n2ccc(=O)[nH]c2=O)C=C(OC(=O)c2ccccc2)C1=O (stereo not given) | > 100 | –
49 | COC(=O)[C@H](Cc1ccccc1)NC(=O)N1CCCN(C(=O)N[C@@H](Cc2ccccc2)C(=O)OC)CCCN(C(=O)N[C@@H](Cc2ccccc2)C(=O)OC)CCC1 | 29.2 | –
50 | O=C(O)c1cc(=O)[nH]c(SCc2ccccc2)n1 | > 100 | –
51 | C=C(C)C1Cc2c(cc(OC)c3c(=O)c4cccc(O)c4oc23)O1 (stereo not given) | 96.6 | –
52 | Cc1ccccc1C1=[N+]([O-])c2ccccc2C1=O | > 100 | –
